# Assay results as given in paper PMC12136788.
# This is one part of the list.
# B1: chr11:100882373:100882374:+_ENSMUSG00000019302_ENSMUST00000044721|mus_mus|mus_mus_mus_hu_True|68_68 (ssRNA)
# RNA: GGGAGUUCUACAGUCCGACGAUCUUCCUGGUUUGUGUUGAUUUCCUUCAGUUCAUUUUCAAUCUUCUCGAAAUUGGCCUCUAAGUCAAUCAUGUCCCGGGGGAAGGGAACCUCUGGGUUUUCACCGGUGUCCAUAAUCGGAAUCAACAGAGGAUUGAGCAUCA
# B2: chr7:23239867:23239868:+_ENSG00000136243_ENST00000258742|hu_mus|FALSE|FALSE (ssRNA)
# RNA: GGGAGUUCUACAGUCCGACGAUCUCCAAAUACUGAAGUGCUUCCGGAAGGAGGAGUGGCAAGUCCAGGGCUUGUUUUAAAACUAAAGUUCUGAACAGUACUGCUGCUGCUGUUAUUCACUGGGAAGCCUGGUGACCCAAACGACAACAGAGGAUUGAGCAUCA
# B3: chr19:16212804:16212805:+_ENSG00000167460_ENST00000300933|hu_mus|hu_hu_hu_mus_False|8_28 (ssRNA)
# RNA: GGGAGUUCUACAGUCCGACGAUCAACAAUUCUGGAGUGAAGGAAAGAUGUAACAUGGAACAGCAUUAAAGCUCAGUCAGAAGGCACAUGGGCAACAAUGAUCACCCCCCAAGCAUUGCUUGGAAUGUGCUUGAGAAAUCUGUUCAACAGAGGAUUGAGCAUCA
# B4: chr4:120564514:120564515:+_ENSMUSG00000032890_ENSMUST00000071093|mus_mus|FALSE|FALSE (ssRNA)
# RNA: GGGAGUUCUACAGUCCGACGAUCAAAGAAAAAGACAAGACAGAAAAGCAAGUGGAGACCAUAAGACAACAAGGCAGGGACUAAGCAAGGCCCACCAGUGGCCACAUCCCCUAUUUCCACCCCUGGAGAUUCCAUGGGCAAGAACAACAGAGGAUUGAGCAUCA
# B5: chr1:46159212:46159213:+_ENSG00000159596_ENST00000372025|hu_mus|hu_hu_hu_mus_True|28_98 (ssRNA)
# RNA: GGGAGUUCUACAGUCCGACGAUCUCUGAUCCCUCCCAAGAAAGAUAGGAAACCGGCUCCAUAAGCCAUCUGAGUGAAAGCUAGGACGGGGAUAUAAGACUUUGUUAUCAGCAUGACAAGUGGGGGAGCAGUAAAGGGGAUUAACAACAGAGGAUUGAGCAUCA
# B6: chrX:98862621:98862622:+_ENSMUSG00000034160_ENSMUST00000044475|mus_hu|mus_mus_mus_hu_False|8_68 (ssRNA)
# RNA: GGGAGUUCUACAGUCCGACGAUCCUGCAUCUCCUUUAGAGUGUUUCCCAUAUUAGAGUAGGCAUCAGCAAAUGUAGGACUGAUUCGAAUAGCCUCCUUAUAAUGCAUCAGAGCUUCCUGCAGUUUUCCCUGCUGUUGCAGUACCAACAGAGGAUUGAGCAUCA
# B7: chr1:154966221:154966222:+_ENSMUSG00000042751_ENSMUST00000043313|mus_hu|FALSE|FALSE (ssRNA)
# RNA: GGGAGUUCUACAGUCCGACGAUCACUUGAAUAUCAUUUUUUAUUAAUGAAUUGAUUUCCAUAAAGCAAAUCUUACUCUUAAAAUGGCAGAUUAUGUGAUCAAAAAGCGAUUCAAAAAAGCUUCCCCCUCCUCAUGCCAACCCUCAACAGAGGAUUGAGCAUCA
# B8: 46070444_46083837_1657_CDS_ENSG00000136152_ENST00000349995|human|control|control (ssRNA)
# RNA: GGGAGUUCUACAGUCCGACGAUCUUCUGUUGAACCAGAUUUUGUCAGACUGUUAGACUCUCCUUCUUCUAAGUGAACAUCUGAAAAUGAAGCUUCUGAAGGUACCUUCUUCUGUUCAUCUUUCAAACUCUGUGCAAUCUGCUCCAACAGAGGAUUGAGCAUCA
# B9: chr1:193038565:193038566:+_ENSG00000116747_ENST00000367444|hu_hu|FALSE|FALSE (ssRNA)
# RNA: GGGAGUUCUACAGUCCGACGAUCACGACCCCACAUGCCACAUUUCAUGCUUUCCUUCAGAUCUUUCUUAAACUGGAUAAAAGUAAAGAGAUGGGUAGGAAUGCGACAAACUUCAGAAACAGCUUUAAAUGCUGCUUGUUUUGUCAACAGAGGAUUGAGCAUCA
# B10: chr2:112102183:112102184:+_ENSMUSG00000027133_ENSMUST00000028553|mus_hu|FALSE|FALSE (ssRNA)
# RNA: GGGAGUUCUACAGUCCGACGAUCCGUUGAGGUAAUACUGGAGAAACAUGAUCGCUUAUAAGCCAGCGGUCCCAAUUCGGUCCACCGCUCAGUCUGCAGUGGUCCGCCCGACCGCGUCACGUGUUCGUCAAUUUCCUUCCUGCACAACAGAGGAUUGAGCAUCA
# B11: 112608469_112614408_2246_CDS_ENSG00000153107_ENST00000341068|human|control|control (ssRNA)
# RNA: GGGAGUUCUACAGUCCGACGAUCAAUAAAAACCUUUCCCACCCGAACCACUCCUGUGUAUAGCACCAGGUUUCCACUGCCUUCCAAGACCAGCAUGGUGUCUAUUUUCUCCACUGGUGCUGCAUCCUUUGCUGGUAUGUUGGUCAACAGAGGAUUGAGCAUCA
# B12: chr2:9570881:9570882:+_ENSG00000119203_ENST00000238112|hu_mus|FALSE|FALSE (ssRNA)
# RNA: GGGAGUUCUACAGUCCGACGAUCACUUGUCUUCUGAAGGAACCAGGGCAGGGCUCCACAGUGAUCCAAAUGGAAAUGACUGAUCAACAGAAGGUCGAUCUCAGCUGGGUCGAUAAGGUCAAUGUAAGGAAGGGCAUCCAUUCCCAACAGAGGAUUGAGCAUCA
# B13: chr2:5814250:5814251:-_ENSMUSG00000025816_ENSMUST00000102981|mus_hu|mus_mus_mus_hu_True|18_18 (ssRNA)
# RNA: GGGAGUUCUACAGUCCGACGAUCUUCCUUUCCGGUUUCUGAAUUUCUGGUAGAACUGCACAGAAUGGUUUGAUAACUUCUAAAAAUUUGAUGCCCAUGGCUGCUGCUGGGGAGGCCCGGCGGGCACCCGCGGCCUCGGCGCUGCAACAGAGGAUUGAGCAUCA
# B14: chr10:36853155:36853156:-_ENSMUSG00000069662_ENSMUST00000092584|mus_hu|FALSE|FALSE (ssRNA)
# RNA: GGGAGUUCUACAGUCCGACGAUCAUAACCCAGAGGAAGUAUUUUGUAACCACAGCAAAUGCCAUUAUACAUACUGCCAAUACAGAUUUAAUAGACAAUACUGAACUGUACAAGAGUUAUUUAUUUUUCCUUAAUCUCAAAGCUCAACAGAGGAUUGAGCAUCA
# B15: 26887325_26887445_518_CDS_ENSG00000120159_ENST00000333916|human|control|control (ssRNA)
# RNA: GGGAGUUCUACAGUCCGACGAUCAAGCAUCUUCUGUAACUUUUUCUCUCCUAUAAUACAGAAGCACUGCUGAAGCAUUUCUUUUUUGUCUGAUAUAUAGAAACUAACUGGUUUCAAUGACACAGUCAGGUCCAGUCCACCUUCCAACAGAGGAUUGAGCAUCA
# B16: chr1:243289802:243289803:-_ENSG00000143702_ENST00000366542|hu_hu|motif|central (ssRNA)
# RNA: GGGAGUUCUACAGUCCGACGAUCAAGAGAAAGUCAUUCUUGUACUGUAACAUCUUCCUCUUCCCCAUCGGGGUUGAAUCGGUUGAAAUGUAUACUGAAAUCAGCCUCAGAUUCAGCAUUCUCAAAUUCAGCUGCGGCUGAAACCAACAGAGGAUUGAGCAUCA
# B17: chr4:59614313:59614314:+_ENSMUSG00000028383_ENSMUST00000030078|mus_hu|FALSE|FALSE (ssRNA)
# RNA: GGGAGUUCUACAGUCCGACGAUCGUUGCCAGUAAAACUUUUUGGCUUUUGGAAAAUGGAAUAUGCUGCAUCUGCAAUGAUAUCAACUUUUCUACACUGGCUUUCGAUACCAGGUCCUCCCAGCAUAUCCAUAGCAGCAGUGUGCAACAGAGGAUUGAGCAUCA
# B18: chr7:112959530:112959531:-_ENSMUSG00000030879_ENSMUST00000124482|mus_mus|FALSE|FALSE (ssRNA)
# RNA: GGGAGUUCUACAGUCCGACGAUCGGCAGCCAGCGACAACCUCAUGCUCUCACCUCAGCCCCUCCUCUCGGGGGCCCGGAAAGGGAAACUCCGAGCUGUGUGUGCGCGCGCGGGGAGAGGGGGAGCAGAGGGGCGGAGGCACGUCAACAGAGGAUUGAGCAUCA
# B19: chr5:79734569:79734570:+_ENSG00000039319_ENST00000505560|hu_hu|FALSE|FALSE (ssRNA)
# RNA: GGGAGUUCUACAGUCCGACGAUCACUUUCUAUAUCAAUGUAAUUAGAGUUGAAGCUAACCUGUGGAUCAGCUGUAGAAUCUAUAGCACAAGUGAUUGGAACAACGGUAUCUGCUGUGCUGGGUUCACUUUCUAUUGUAUCUGGCAACAGAGGAUUGAGCAUCA
# B20: chr1:25124269:25124270:+_ENSG00000169504_ENST00000374379|hu_hu|motif|central (ssRNA)
# RNA: GGGAGUUCUACAGUCCGACGAUCUACAACUCCUUUGAGCCAAAGAAUCAUGAAGAGCCUCUGGGAAAAGGGGCAGUUUCCGGUGCUUUCACCAUCACUGCCAGCCUUGACGAAGAGCUCGAUGAGGGGCUCUUUGUCCUCCUCCAACAGAGGAUUGAGCAUCA
# B21: 63429841_63574422_457_ncRNA_ENSMUSG00000023965_ENSMUST00000169134|mouse|control|control (ssRNA)
# RNA: GGGAGUUCUACAGUCCGACGAUCUGUGAUUUCUUUACACCAUCCGACGUCCACAGUCUCUAUGGUCACGCUGUAUCGCCCAAUGGCUAUCAGUGCAUAAUCAGUGAUCUUACAGGACACCAGGUACAGCUCUUUCAGGUUCUGCAACAGAGGAUUGAGCAUCA
# B22: chr1:55207850:55207851:+_ENSMUSG00000025979_ENSMUST00000162364|mus_mus|FALSE|FALSE (ssRNA)
# RNA: GGGAGUUCUACAGUCCGACGAUCCCGGUGAUGAAAAUAGGCAUGUGAAAAUAUUCUAUAAAUCCUACGGCACACUGAUCCUAGUUUUGCUACAGAUGAUUCUUUUAUGCUAACCCUGCUGGGAAAAUAUUUAUUGCUAUUCAGCAACAGAGGAUUGAGCAUCA
# Target: T1, UNK ZnF1-3 (human, UniProt Q9C0B0 31-174)
# T1 sequence: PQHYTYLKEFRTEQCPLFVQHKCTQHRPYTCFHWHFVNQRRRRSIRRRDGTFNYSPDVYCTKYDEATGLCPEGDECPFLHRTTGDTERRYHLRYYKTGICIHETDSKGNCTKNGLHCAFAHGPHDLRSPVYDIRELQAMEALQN
# Assay: nsRBNS (natural sequence RNA bind-n-seq); RBNS binding buffer (assumed for nsRBNS): 25 mM Tris pH 7.5, 150 mM KCl, 3 mM MgCl2, 0.01% Triton X-100, 500 ug/ml BSA, 20 U/ml SUPERase-In, 4 C; UNK is unkempt and MSI1 is Musashi-1; names of the RNAs are library labels; protein concentration not given here; high values mean tight binding
row,Binder,binding signal
1,B1,0.572 enrichment R
2,B2,1.35 enrichment R
3,B3,1.15 enrichment R
4,B4,1.41 enrichment R
5,B5,1.76 enrichment R
6,B6,1.12 enrichment R
7,B7,1.69 enrichment R
8,B8,0.578 enrichment R
9,B9,0.968 enrichment R
10,B10,0.574 enrichment R
11,B11,1.01 enrichment R
12,B12,1.29 enrichment R
13,B13,1.32 enrichment R
14,B14,0.933 enrichment R
15,B15,0.983 enrichment R
16,B16,0.45 enrichment R
17,B17,0.79 enrichment R
18,B18,0.403 enrichment R
19,B19,1.02 enrichment R
20,B20,0.448 enrichment R
21,B21,0.667 enrichment R
22,B22,1.24 enrichment R
